Holding throughout (assay): NCI-60 cell line screen, 48 h
The subject of assay [1] is SF-295 CNS.
Assay [2] has as its system IGROV1 ovarian.
For assay [3], the system named is LOX IMVI melanoma.
For assay [4], the system named is SK-MEL-28 melanoma.
Assay [5] concerns TK-10 renal.
Assay [6] has as its system A498 renal.
In assay [7] the test system is HOP-92 NSCLC.
Assay [8] has as its system SK-OV-3 ovarian.
In assay [9] the test system is T-47D breast.
Assay [10] relates to CCRF-CEM leukemia.
In assay [11] the test system is OVCAR-8 ovarian.
The subject of assay [12] is KM12 colon.
For assay [13], the system named is NCI-H226 lung.
For assay [14], the system named is NCI-H522 lung.
The test system of assay [15] is SN12C renal.
Assay [16] relates to U251 CNS.
Assay [17] concerns ACHN renal.
The subject of assay [18] is DU-145 prostate.

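Interpolation was linear, between the two tested concentrations surrounding the appropriate level; five concentrations were tested over 48 hours in 96-well plates. GI50 marks 50% less growth.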 The source holds more than one record for some entries. Only these are listed. An entry can have further records. For part of these data: Values that stand side by side repeat one measurement in other runs, samples, wells, individuals or studies. Marks in square brackets tell the records apart. The letters are not those of the source and start again with each entry.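 TGI denotes the concentration required for complete inhibition of growth.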 For part of these data: The tests behind the records often covered other concentration ranges, which the source does not state; a value can be the end of its range.

`COC(=O)c1cc2ccc(OC(C)=O)c(OC(C)=O)c2cn1`: the TGI in assay [1] was 7.55 µM and 98.9 µM.

`O=C(NC[C@H](O)CO)c1ccncc1Nc1ccc(I)cc1F`: the GI50 is 86.7 nM [sample A, mean of 2 tests] and 1.53 µM [sample B, mean of 2 tests] in [2]; 435 nM [sample A, mean of 2 tests] and 36 nM [sample B, mean of 2 tests] in assay [3]; 18.3 nM [sample A, mean of 2 tests] and 10.1 µM [sample B, 1 test] in assay [5]. In assay [4], the TGI is 193 nM [sample A, mean of 2 tests] and > 100 µM [sample B, mean of 2 tests].

For `CCOc1cc2ncc(C#N)c(Nc3ccc(OCc4ccccn4)c(Cl)c3)c2cc1NC(=O)/C=C/CN(C)C`, the TGI in [6] was 27.1 µM [sample A, mean of 2 tests] and 2.24 µM [sample B, mean of 2 tests]; in assay [8], 13.5 µM [sample A, 1 test] and 22.8 nM [sample B, mean of 2 tests]; in assay [5], 452 nM [sample A, mean of 2 tests] and > 10 µM [sample B, 1 test]. Further, the GI50 in [7] is 2.68 µM [sample A, mean of 2 tests] and 233 nM [sample B, mean of 2 tests]; in [9] it was 723 nM [sample A, mean of 2 tests] and 3.88 nM [sample B, mean of 2 tests].

`CN(C)c1ccc2nc3ccc(=[N+](C)C)cc-3sc2c1`: the TGI in assay [10] is > 100 µM [sample A, mean of 2 tests] and 9.88 µM [sample B, mean of 2 tests]; in assay [11], 15 µM [sample A, mean of 2 tests] and 1.44 µM [sample B, mean of 2 tests].

For the compound `COc1ccc(/C=C\c2cc(OC)c(OC)c(OC)c2)cc1OC`, the TGI is 40.4 µM and 430 nM in [10]; 507 nM and > 100 µM in assay [12]; 199 nM and 5.87 µM in assay [13]; 152 nM and 15 µM in assay [14]; 1.15 µM and 14.9 µM in assay [11]; 2.28 µM and > 100 µM in assay [15]. In assay [16], the TGI is 2.04 µM and > 100 µM.

As for `NC(=S)N/N=C/c1ncccc1N`, the TGI is 1.01 µM [sample A] and 14.3 µM [sample B] in [17]; 7.41 µM [sample A] and > 100 µM [sample B] in [18].

(Values after PubChem BioAssay (NCI).)
